Values joined by “and” are separate entries in the source; they are usually repeats but may differ in a detail not shown here. Identical values can stand only once. The campaign covered roughly 310,000 compounds. About 18,000 (5.8%) were called active. The shares of active, inactive and inconclusive entries below differ from those in the screen. The call rests on the fitted dose curve; in most records, active means well fitted inhibition curve with a large enough effect; inconclusive means small, poorly fitted or top-dose-only effect, or another doubt; inactive means no such curve, though single readings can be large or run the other way. Potencies of inconclusive entries are doubtful fits and often do not repeat.
experiment: Primary qHTS for delayed death inhibitors of the malarial parasite plastid, 48 hour incubation; settings: P. falciparum luciferase growth in erythrocytes; series mostly up to 28.7 µM; activity change, negative = inhibition: at the top concentration
Method in brief: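 Luciferase-expressing parasites in RBCs, 2% Hct / 0.1% parasitemia final; RPMI 1640 + 0.5% Albumax; 37 C, 5% CO2, one generation; luminescence read-out, lower signal = inhibition.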
On the % scale 0 is the no-effect control and ±100 the full control effect; potency means the concentration at half of the fitted maximal effect; tags describe the fitted curve by direction and shape.

SMILES	Potency	activity change, negative = inhibition
CCCCC(CC)C(=O)Nc1cc(C(=O)NCc2ccc(C)cc2)ccc1N1CCC2(CC1)CC(c1cccc(Br)c1)=NO2 (stereo unspecified)	active: 2.33 µM	–
CCOC(=O)c1c(S(=O)(=O)NCC(=O)N2CCN(c3ccc(OC)cc3)CC2)c(C)n(C)c1C	inconclusive: 10.4 µM [inhibitor, partial curve, poor fit]	–
Cn1nc(-c2ccc(Cl)cc2)cc1NC(=O)CSCC(=O)O	–	inactive: 38.2%
COc1ccc(-c2cc(=O)c3cc(F)ccc3[nH]2)cc1	inconclusive: 11.7 µM [inhibitor, single point]	–
COc1cccc(OCCn2cc(C(=O)c3ccco3)c3ccccc32)c1	active: 1.85 µM	–
O=C(CSc1nc2ncccc2[nH]1)NCc1ccccc1	–	inactive: 0.418%
CCCCC1CCC(C(=O)Nc2ccccc2)CC1 (stereo unspecified)	inconclusive: 2.62 µM [inhibitor, full curve]	–
COCCn1c(N)c(N(Cc2ccccc2)C(=O)c2oc3ccccc3c2C)c(=O)[nH]c1=O	inconclusive: 3.29 µM [inhibitor, partial curve]	–
CCN(C(=O)Cc1c(C(=O)O)[nH]c2ccccc12)c1cc(OC)ccc1OC	inconclusive: 7.38 µM [inhibitor, single point]	–
COCCNC(=O)CN(C(=O)CCC(=O)Nc1nccs1)c1ccccc1OC	–	inactive: 9.2%
COC(=O)C(Cc1c[nH]c2ccccc12)NC(=O)c1cc(-c2ccc(OC)c(OC)c2)oc1C (stereo unspecified)	active: 2.94 µM	–
Cc1nn(C2CCS(=O)(=O)C2)c(Cl)c1/C=C/C(=O)OCC(N)=O (stereo unspecified)	–	inactive: 2.48%
CC(C)Cn1c(SCC(=O)N(C)C2CCS(=O)(=O)C2)nc2cc(Cl)ccc2c1=O (stereo unspecified)	inconclusive: 14.7 µM [inhibitor, single point]	–
O=C(OCC(=O)N1CCCCCC1)c1cnc(Cl)c(Cl)c1	–	inactive: -3.82%
Cc1cc(N(C)Cc2ccccc2)nc(-c2ccccc2)n1	–	inactive: -0.22%
CN(C)C1=NC[C@H](Cc2ccccc2)N1CC1CCCCCC1	active: 11.7 µM	–
CNc1ccc(/C=C/C(=O)c2ccc(C)cc2)cc1[N+](=O)[O-]	–	inactive: 9.2%
O=C(NCc1ccco1)c1c[nH]c2ccc(S(=O)(=O)N3CCOCC3)cc2c1=O	inconclusive: 18.5 µM [inhibitor, single point]	–
CCOC(=O)c1cnc2c(ccc3ccccc32)c1Cl	inconclusive: 4.15 µM [inhibitor, partial curve, poor fit]	–
CC(C)c1nc(SCC(=O)N2c3ccccc3CC2C)c2ccccc2n1 (stereo unspecified)	inconclusive: 11.7 µM [inhibitor, single point]	–
Cc1ccc(NC(=O)c2cccs2)cc1NC(=O)c1ccco1	–	inactive: 20.6%
COC(=O)c1ccc2c(=O)n(CCN3CCOCC3)c(SCC(=O)Nc3cccc(OC)c3)nc2c1	inconclusive: 18.5 µM [inhibitor, single point]	–
CCN(CC)CCC(=O)N1c2ccccc2Sc2ccc(Cl)cc21	inconclusive: 13.5 µM [inhibitor, partial curve] and inconclusive: 4.65 µM [inhibitor, partial curve]	–
N#Cc1c(N(CCO)CCO)nc(N)c2c(N)nc3c(c12)CC(=O)N3Cc1cccs1	inconclusive: 0.0928 µM [inhibitor, full curve, poor fit]	–

SMILES	Potency	activity change, negative = inhibition
COc1ccc(/C=C/C(=O)Oc2ccc(/C=N\NC(=O)c3ccc(F)cc3)cc2)cc1	–	inactive: 2.05%
O=C(Nc1cccc(N=Cc2cc(Cl)cc(Br)c2O)c1)c1ccco1	inconclusive: 10.4 µM [inhibitor, single point]	–
Cc1ccc(N(C(=O)Cn2nnc3ccccc32)C(C(=O)NCc2ccccc2)c2ccccn2)cc1 (stereo unspecified)	inconclusive: 9.28 µM [inhibitor, single point]	–
Cc1cccc(CSc2nc3c(c(-c4cccs4)c2C#N)CN(C)CC3)c1	inconclusive: 16.5 µM [inhibitor, single point]	–
COc1ccc(CCN(C(=O)COc2ccccc2)c2nc(-c3ccccc3)cs2)cc1OC	active: 10.4 µM	–
NNC(=O)CN1C(CN2CCOCC2)=Nc2ccc(Br)cc2C1c1ccccc1 (stereo unspecified)	inconclusive: 14.7 µM [inhibitor, single point]	–
Cc1cccn2cc(-c3cc4ccccc4oc3=O)nc12	–	inactive: 264%
O=C(COc1ccccc1)N(Cc1ccccc1)c1nc(-c2ccccc2)cs1	inconclusive: 3.7 µM [inhibitor, single point]	–
COc1ccccc1N(CC(=O)NCc1ccc2c(c1)OCO2)C(=O)CCC(=O)Nc1nccs1	inconclusive: 11.7 µM [inhibitor, partial curve, poor fit]	–
c1ccc2c(c1)ncn2-c1ncnc2sc3c(c12)CCCC3	–	inactive: 18.7%
CC(C)(C)c1ccc(C(=O)Nc2ccc(O)c3c(=O)cc(-c4ccccc4Cl)oc23)cc1	inconclusive: 7.38 µM [inhibitor, partial curve]	–
CC(=O)n1c2c(c3ccccc31)OC(N)=C(C#N)C2c1cccc(Cl)c1Cl (stereo unspecified)	–	inactive: -17%
COc1ccc(Cl)cc1S(=O)(=O)N1CCCC(C(=O)N2CCOCC2)C1 (stereo unspecified)	–	inactive: 3.43%
CC(C)c1ccc(N=C2N=C(N)c3ccccc32)cc1	–	inactive: 33.2%
O=C(NCc1cccnc1)c1ccc(Cn2cc(C(F)(F)F)ccc2=O)cc1	inconclusive: 4.15 µM [inhibitor, single point]	–
CCn1c(=S)sc2c(=O)n(-c3ccccc3)c(SCC(=O)NCc3ccco3)nc21	inconclusive: 10.4 µM [inhibitor, single point]	–
O=C(CCN1C(=O)C2CC=CCC2C1=O)Nc1ccc(S(=O)(=O)N2CCCCC2)cc1 (stereo unspecified)	inconclusive: 18.5 µM [inhibitor, single point]	–
CCN(CC)CCOc1ccc2c(c1)C(=NNC(=O)c1ccccn1)c1cc(OCCN(CC)CC)ccc1-2	active: 0.37 µM	–
CCN1C(=O)[C@H]2[C@@H](c3ccc(C)cc3)N3C(=O)N(c4cccc(F)c4)C(=O)[C@@]3(Cc3ccc(Cl)cc3)[C@H]2C1=O	inconclusive: 18.5 µM [inhibitor, single point]	–
CC(=O)c1ccc(NC(=O)/C=C/c2ccc(C)cc2)cc1	–	inactive: -3.66%
CCOP(=O)(OCC)C(Nc1ccccc1)c1ccccc1C(F)(F)F (stereo unspecified)	inconclusive: 18.5 µM [inhibitor, partial curve, poor fit]	–
O=C(NCC1CCCCC1)c1cccc(Br)c1	–	inactive: 20.2%
Cc1ccc(NC(=O)Nc2ccc(F)cc2)cc1Cl	inconclusive: 13.1 µM [inhibitor, single point]	–
O=C(Cc1ccc([N+](=O)[O-])cc1)OCc1ccc([N+](=O)[O-])cc1	inconclusive: 2.33 µM [inhibitor, single point]	–

SMILES	Potency	activity change, negative = inhibition
COc1ccc(-n2nc(C(=O)NCC(=O)Nc3cc(OC)c(OC)c(OC)c3)c3ccccc3c2=O)cc1OC	inconclusive: 5.22 µM [inhibitor, partial curve]	–
CCCCNC(=O)C(=O)NCC1CCCN1S(=O)(=O)c1cccs1 (stereo unspecified)	inconclusive: 18.5 µM [inhibitor, single point]	–
Cc1cc(C(=O)Nc2c(C)nn(Cc3ccccc3Cl)c2C)no1	active: 2.62 µM	–
CCN(CC)S(=O)(=O)c1cc(NC(=O)c2cccc(N3C(=O)CCC3=O)c2)ccc1Cl	inconclusive: 11.7 µM [inhibitor, single point]	–
CCN(CC)c1ccc(S(=O)(=O)Nc2cc(Cl)ccc2Cl)cc1NC(=S)NC(=O)C1CCCC1	–	inactive: -9.67%
CCC(NC(=S)NC1CCCCC1)c1ccccc1 (stereo unspecified)	inconclusive: 13.1 µM [inhibitor, single point]	–
Cc1ccc(-n2c(CNCc3ccc(F)cc3)nc3ccccc3c2=O)cc1	inconclusive: 8.28 µM [inhibitor, partial curve, poor fit]	–
O=C(NCc1nnc(SCc2ccccc2)n1-c1ccc(F)cc1)C12CC3CC(CC(C3)C1)C2	inconclusive: 8.28 µM [inhibitor, partial curve]	–
Cc1n[nH]c(=S)n(/N=C/c2cccc([N+](=O)[O-])c2)c1=O	active: 1.65 µM	–
CC(C)NC(=O)c1ccc2c3n(nc2c1)-c1ccc(Cl)cc1CO3	–	inactive: 154%
CCCc1cc(C(=O)NC(C)C2CCCO2)cs1 (stereo unspecified)	–	inactive: 112%
O=C(CCc1nc2ccccc2c(=O)[nH]1)N1CCCc2ccccc21	–	inactive: -36.4%
COc1ccc(CCN(C)C(=S)Nc2cccc(C)c2)cc1OC	active: 1.65 µM	–
COC(=O)CCC(=O)OC1(C)C(=O)C=C2C=C(C3CC3)N(c3ccccc3)C=C2C1=O (stereo unspecified)	inconclusive: 13.1 µM [inhibitor, single point]	–
COc1ccc(N2C(=O)C(CC(=O)O)S/C2=N\N=C\c2cccs2)cc1 (stereo unspecified)	–	inactive: 14.8%
COc1ccc(NS(=O)(=O)c2cc(NC(=O)/C=C/c3cccs3)ccc2N2CCOCC2)cc1	inconclusive: 13.1 µM [inhibitor, single point]	–
CCOc1ccc(NC(=O)NNC(=O)c2ccc3ccccc3c2O)cc1	inconclusive: 18.5 µM [inhibitor, single point]	–
O=C(NC(=S)NNC(=O)c1ccccc1O)c1ccc(F)cc1	–	inactive: -16.1%
COc1cccc(C(=O)N2CCN(S(=O)(=O)Cc3ccccc3)CC2)c1OC	–	inactive: -10.2%
COc1ccc(N(CC(=O)NC2CCCCC2C)S(=O)(=O)c2c(C)nn(C)c2C)cc1 (stereo unspecified)	inconclusive: 0.185 µM [inhibitor, partial curve, poor fit]	–
Cn1c(Cn2c(=O)sc3ccccc32)nnc1SCC(=O)N1CCc2ccccc21	–	inactive: 5.3%
Cc1sc2c(c1C)C(=O)NC(c1ccccc1F)N2 (stereo unspecified)	–	inactive: 63.5%
Nc1cc(C(=O)O)c(N)c2c1C(=O)c1ccccc1C2=O	inconclusive: 9.28 µM [inhibitor, partial curve, poor fit]	–

From PubChem BioAssay AID504832 (National Center for Advancing Translational Sciences (NCATS), 2011)
